Experimental data published in the BET-seq Pho4 binding data (Le et al. 2018).
Some of the results follow. The energies were worked out here from pooled read counts, against the library average; single values are noisy.

target: T1, Pho4 (S. cerevisiae) (UniProt P07270); test: relative binding free energy (BET-seq); higher = weaker binding; conditions: reference: library average
T1 sequence: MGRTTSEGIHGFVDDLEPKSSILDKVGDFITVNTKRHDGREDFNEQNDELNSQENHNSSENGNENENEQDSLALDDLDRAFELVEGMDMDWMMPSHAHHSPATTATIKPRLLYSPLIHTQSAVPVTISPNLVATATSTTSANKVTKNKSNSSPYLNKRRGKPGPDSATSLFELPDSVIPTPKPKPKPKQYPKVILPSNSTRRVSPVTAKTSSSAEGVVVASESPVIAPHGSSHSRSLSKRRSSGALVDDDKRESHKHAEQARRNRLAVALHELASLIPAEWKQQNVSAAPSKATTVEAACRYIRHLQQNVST

Sequence	relative binding free energy [kcal/mol]
GGATTCACGTGAGATG	0.34
TGATGCACGTGAGGCA	0.29
AAAGGCACGTGCTGAG	-0.06
TTTTGCACGTGTTGGC	0.17
TCGTCCACGTGTGTGT	-0.03
CTTTACACGTGTGGGG	0.24
GAGTTCACGTGTCGTT	0.35
TGGGCCACGTGCGAGT	-0.07
TGGCGCACGTGCAGGA	-0.12
AGACGCACGTGTTTTT	-0.02
TGTTGCACGTGTGTCG	0.01
GAGTACACGTGTGGCG	0.08
GGAAGCACGTGGTGCG	-0.18
AGCAACACGTGAGGTG	0.28
TAGATCACGTGGGTCG	-0.12
GACGGCACGTGGATTG	-0.02
CGTATCACGTGGTTTA	0.12
AGTATCACGTGGCTTA	0.01
TAATGCACGTGTTGTC	-0.12
TGGATCACGTGACAGG	0.24
ATCTTCACGTGAGGGG	0.24
TAATACACGTGTAATG	0.14
GCGGACACGTGTAGGG	0.14
GTTTACACGTGGATCT	0.14
AGTGTCACGTGGTCCT	-0.01
TCTTACACGTGAGGGG	0.36

Sequence	relative binding free energy [kcal/mol]
GATCGCACGTGAGGTG	0.29
GGTGGCACGTGTTTAA	-0.03
TAGGCCACGTGTTGAT	-0.19
AGGGGCACGTGTTTTA	-0.08
TTAGTCACGTGTTTGC	0.06
GTCTACACGTGTGTTT	0.24
TTCTACACGTGGTGGC	0.14
ATTCTCACGTGTCTGG	0.3
AGTGTCACGTGCGGAG	-0.01
CGGCGCACGTGGGGAA	-0.08
TTGAGCACGTGTCAGT	-0.11
TGTATCACGTGGCGCT	0.12
CATGGCACGTGATGGT	0
TTGATCACGTGAGCGG	0.34
AGTTACACGTGATATT	0.19
AATTTCACGTGTTTTG	0.18
TGGAGCACGTGGGTTG	-0.25
AGTATCACGTGAATTG	0.17
GGTACCACGTGTATGT	0.14
AATGCCACGTGAGGGT	0.06
TTCGGCACGTGGTTTA	-0.25
AGGTACACGTGTAGTA	0.16
GGTGACACGTGTGCGG	0.02
GGAAGCACGTGGGGAT	-0.2
TGCCACACGTGGTTTG	0.02
AGGAACACGTGTTATG	-0.05

Sequence	relative binding free energy [kcal/mol]
TTTAACACGTGTATCG	0.13
TTTTTCACGTGGACTT	0.25
GAGGGCACGTGTGGAG	0.02
ATATGCACGTGAGGTA	0.11
ATTAGCACGTGACGGT	0.01
ATCGTCACGTGTTGAG	0
AATGTCACGTGTCGGC	0.25
TTAATCACGTGGTACT	0.19
TGCATCACGTGTTTTA	0.33
TCTGGCACGTGATGGA	0.06
TTGACCACGTGGGGGA	-0.34
AGTATCACGTGATAAT	0.33
CTTTACACGTGATCGT	0.29
TAAATCACGTGGGTCT	0.03
CTGCTCACGTGGTGTT	-0.01
AGGATCACGTGTCGTG	0.16
TTTTTCACGTGGACAG	0.22
CGAAGCACGTGAGTGT	0.13
GATGTCACGTGTAGGC	0.27
GGGTTCACGTGGACAT	0.18
GTAGTCACGTGCCTGT	0.21
GTGTGCACGTGGTGCT	0
TATGTCACGTGGCGGC	0.01
GTAATCACGTGGGTGC	0
AGCCGCACGTGGTGTT	-0.06
TTTTTCACGTGACGAG	0.42

Sequence	relative binding free energy [kcal/mol]
GAGGGCACGTGTTGCG	-0.1
GGAGTCACGTGTGGCC	0.29
AGTGTCACGTGATCTG	0.14
TTGTACACGTGAAAGT	0.4
TTTAGCACGTGAATGG	0.17
AGTGGCACGTGGAATT	-0.08
ATATTCACGTGTTGTT	0.22
GAGGGCACGTGTCGGG	0.01
ATATCCACGTGGTGTT	-0.07
GCTGTCACGTGTTTTA	0.03
ATAAACACGTGGGGCG	-0.17
GGGAGCACGTGGCGCG	-0.12
AAATGCACGTGTTAGT	-0.02
GGTGACACGTGGAGAT	0.1
ATGTTCACGTGAGACG	0.32
GGGGGCACGTGGCGCG	-0.28
TGGGGCACGTGCATGG	-0.16
AAGGACACGTGGAGGA	0.09
TTATCCACGTGTTGTA	-0.05
GTAGTCACGTGGCAGA	0.14
CAGTTCACGTGGGTCG	0.24
GCGGGCACGTGTAGTT	0.03
AGCGTCACGTGAGTGC	0.29
AATGTCACGTGTGAGT	0.16
TCGATCACGTGGCGGG	0.24
TGTAGCACGTGGAAAT	0.09

Sequence	relative binding free energy [kcal/mol]
CTGTGCACGTGAGGGA	0.25
TATCGCACGTGTGGCT	0.07
GTACGCACGTGGTGTT	-0.18
TGTTGCACGTGGCACG	-0.19
TGTGTCACGTGCGATG	0.13
ATGAGCACGTGGAGAG	-0.11
ATCGGCACGTGTCGGT	-0.13
GGGGTCACGTGGATTG	0.26
AGATGCACGTGACTTG	0.08
GTATGCACGTGTTTTG	0.08
CTTATCACGTGGTCTT	0.07
GCGTGCACGTGGATTG	0.06
TTTATCACGTGAATTG	0.42
TTGTTCACGTGCTATG	0.22
TAAATCACGTGGATGG	0.18
TTCTTCACGTGTTTCT	0.36
TAGAGCACGTGGGAGG	-0.19
GTGGACACGTGATAAT	0.32
TATATCACGTGGACTG	0.12
TGGTCCACGTGGTCTG	-0.14
TATGTCACGTGGTACA	-0.03
TTGAGCACGTGCGGTG	-0.16
TAGGTCACGTGATAGC	0.24
TGCTGCACGTGTTCGT	-0.18
GGGATCACGTGAGGGC	0.31
CGCCTCACGTGGGGGT	0.02

Sequence	relative binding free energy [kcal/mol]
TGTGTCACGTGAGTTT	0.37
AGCTTCACGTGCGGGG	0.11
GCTTTCACGTGTGTGG	0.3
CTATGCACGTGGGGTT	-0.15
TGCTACACGTGGTCGT	0.1
TAGTGCACGTGAGACG	0.1
CGCGGCACGTGCGGGA	-0.09
TCGTGCACGTGATGTT	0.16
TAGCTCACGTGTTGTG	0.17
TGGAACACGTGAGGGA	0.17
TTGGTCACGTGGGCTA	-0.07
CGTTGCACGTGAGGAG	0.24
GTGTCCACGTGACGTG	0.18
AGTTACACGTGGGTAA	-0.1
GTGCGCACGTGTTAAT	-0.04
TATGACACGTGGAAGT	0.27
TTTATCACGTGTGTGA	0.15
TGTTACACGTGAATGG	0.32
TAGTTCACGTGATTGT	0.39
ATAGGCACGTGGGTCA	-0.31
ACGGTCACGTGCAGGG	0.02
TACAGCACGTGAGGGG	0.04
GATCTCACGTGAGTTG	0.33
TTTATCACGTGATAGG	0.16
GGCGTCACGTGGTGTC	0.01
CGAGTCACGTGTATTG	0.08

Sequence	relative binding free energy [kcal/mol]
TTATTCACGTGGGTAC	0.15
TTCTGCACGTGTTGGA	0.1
GGGTACACGTGTTGTG	0.11
GGGGACACGTGAGGAT	0.23
TAGGCCACGTGTAGGT	-0.01
GGGTGCACGTGTTTGA	-0.01
CGAAGCACGTGTTGGG	-0.04
GCGTTCACGTGGCAGG	0.17
TTGGTCACGTGCTATG	-0.06
ATTGGCACGTGTAGAA	-0.07
GTTGTCACGTGAAATT	0.19
AAGGACACGTGGTTGT	0.03
GGATGCACGTGGAGGC	-0.02
TTGCACACGTGATTGT	0.19
TAGAACACGTGGAGTG	0.17
GTTGCCACGTGGTTGA	0.03
TGAGGCACGTGGATAA	-0.15
GGTGACACGTGTCTTG	0.08
GTTGTCACGTGGGTTT	0.12
CGGGTCACGTGTTGTC	0.02
GGGTTCACGTGTTAGC	0.26
TAGTTCACGTGATAGA	0.49
GGTTGCACGTGCGATG	-0.07
GATGACACGTGTTGAG	0.08
GGTCACACGTGTGTGT	0.18
GTAGACACGTGGAGAG	0.01

Sequence	relative binding free energy [kcal/mol]
ATTCGCACGTGGTATA	-0.07
TTTGGCACGTGCGTGA	-0.13
TTTTTCACGTGAAGCA	0.32
TAATGCACGTGTGCGT	-0.13
TCTGTCACGTGATTGG	0.2
AGTCACACGTGTTGGA	0.01
ACGTACACGTGTGGAG	0.16
CGGTGCACGTGTATTT	-0.09
ATGGTCACGTGGTAGT	0.16
GTAAACACGTGATGTT	0.14
ATAAACACGTGTTGGG	-0.11
GTAATCACGTGCGGTC	0.35
CCTGTCACGTGTTGTG	0.04
TGTGCCACGTGATCTG	0.04
TTGGTCACGTGGAGCA	0.04
TTGGACACGTGGTTTT	0.13
CTATTCACGTGTGTAA	0.21
CGGGGCACGTGGACGG	-0.11
GTTAGCACGTGGTGAT	-0.07
GATTCCACGTGGGGTA	-0.12
ATCTGCACGTGGTTCG	-0.06
AGTGACACGTGTATAT	-0.05
ACGGGCACGTGGGTTA	-0.26
AGCGGCACGTGGTGGG	-0.08
ATTATCACGTGTAGAT	0.15
TATGGCACGTGGGCTG	-0.31

Sequence	relative binding free energy [kcal/mol]
AAACGCACGTGGGGAG	-0.19
ACTTTCACGTGGTGAG	0.08
GTTGACACGTGCTAGT	0.07
TTCAGCACGTGTTGGG	0.01
ACGGACACGTGGGGAG	-0.2
ATGTTCACGTGCTTCG	0.15
TATTTCACGTGTAAAA	0.27
CAAAGCACGTGAGGGG	0.16
TTGATCACGTGGTCTT	-0.05
TTTCTCACGTGTCTTA	0.27
GGTGACACGTGCTGTT	-0.06
ATTGCCACGTGTGGTG	-0.08
GAATTCACGTGATGGT	0.32
GTTGTCACGTGCTGGG	0.11
AAGGCCACGTGGGAGT	-0.26
TTATACACGTGTTGCG	0.09
TAAGGCACGTGTTGTA	-0.16
AGAGCCACGTGGGTGA	-0.06
TGTGGCACGTGTGTCC	-0.13
TGGGTCACGTGCGGCA	0.01
TGTTTCACGTGTTCTC	0.03
ATGTACACGTGGAGGC	0.01
